In the supplement of paper PMC4967469 one finds AUC and IC50 data, which are given here for 64 cell lines.

IC50 is the fitted dose that halves viability relative to control wells, and lower means more sensitive; a fit beyond the top or the lowest dose is shown as a bound at that dose. AUC is the area under the same curve over the 256-fold range up to the top dose, as a fraction; the more sensitive the line, the further below 1. For part of these data: A top dose marked as inferred was derived from the fitted curves, not read from the paper. For part of these data: Drugs with an entry number were screened twice under separate entries, and the two screens often disagree. A value given as a limit tells only on which side of the number the result lay.

Compound in the first experiment: c1ccc2c(CCNc3ccc(Nc4ccncc4)cc3)c[nH]c2c1 [JNJ-26854165]
Put plainly: Viability of human cancer cell lines after 72 h of drug (GDSC screen). The following applies: top dose 10 µM. Here is the method:
(§1)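 Human cancer cell lines in 384-well plates, medium with 10% serum, drug for 72 h over a 256-fold dose range (nine 2-fold or five 4-fold steps up to the top dose). Adherent lines were fixed and stained with the nucleic acid dye Syto60, suspension lines read with resazurin; signal relative to control wells, capped at 0 and 100%. One two-parameter sigmoid per drug and line, fitted in a mixed model over all curves with the slope shared within a line.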
On to H2810 (mesothelioma, adherent), for which the AUC amounted to 0.839 and the IC50 came out at 7870 nM.

On to “NCI-H1650 (lung adenocarcinoma, adherent)”, for which the AUC was 0.827 and the concentration for half-maximal inhibition (IC50) was found to be 8860 nM.

Compound in another experiment: Cc1sc2c(c1C)C(c1ccc(Cl)cc1)=N[C@@H](CC(=O)OC(C)(C)C)c1nnc(C)n1-2 [JQ1]
The description is as above. Conditions: top dose 1 µM; screen: GDSC drug entry 1218; top dose inferred. As for the experimental part: as §1
Consider “COR-L32 (small cell lung carcinoma, suspension)”, for which the AUC came to 0.955 and the concentration for half-maximal inhibition (IC50) was over 1000 nM.

Take H2810 (mesothelioma, adherent): the AUC was 0.984 and the 50% inhibitory concentration (IC50) was over 1000 nM.

Turning to “NCI-H1650 (lung adenocarcinoma, adherent)”, the AUC turned out to be 0.977 and the IC50 is over 1000 nM.

Compound in a further experiment: CCn1cc(-c2ccnc3[nH]c(-c4cccc(CN(C)C)c4)cc23)c(-c2ccc(NC(=O)N(C)C)cc2)n1 [GSK1070916]
Described as above. The following applies: top dose inferred. Here is the method:
as §1
For the cell line “8-MG-BA (glioma, adherent, top dose 2.56 µM)”, the AUC was 0.941 and the IC50 is over 2560 nM.

In the case of “22RV1 (prostate, adherent, top dose 2.56 µM)”, the AUC was found to be 0.82 and the IC50 amounted to 1950 nM.

As for “42-MG-BA (glioma, adherent, top dose 2.56 µM)”, the AUC was 0.965 and the IC50 was over 2560 nM.

Turning to “201T (lung adenocarcinoma, adherent, top dose 2.56 µM)”, the AUC was 0.929 and the IC50 is over 2560 nM.

For the cell line “451Lu (melanoma, adherent, top dose 2.56 µM)”, the AUC turned out to be 0.987 and the IC50 is over 2560 nM.

As for “639-V (bladder, adherent, top dose 2.56 µM)”, the AUC amounted to 0.989 and the IC50 is over 2560 nM.

As for “647-V (bladder, adherent, top dose 2.56 µM)”, the AUC was found to be 0.964 and the IC50 was over 2560 nM.

In the case of “697 (lymphoblastic leukaemia, suspension, top dose 2.56 µM)”, the AUC is 0.017 and the IC50 was under 10 nM.

Take “769-P (kidney, adherent, top dose 2.56 µM)”: the AUC is 0.845 and the IC50 worked out at 2110 nM.

For the cell line “786-0 (kidney, adherent, top dose 2.56 µM)”, the AUC was determined as 0.893 and the IC50 is over 2560 nM.

“5637 (bladder, adherent, top dose 2.56 µM)”: the AUC is 0.173 and the half-maximal inhibitory concentration (IC50) came to 18.7 nM.

Take “8305C (thyroid, adherent, top dose 2.56 µM)”: the AUC came to 0.96 and the IC50 is over 2560 nM.

Consider “8505C (thyroid, adherent, top dose 2.56 µM)”, for which the AUC was determined as 0.884 and the IC50 is over 2560 nM.

On to “23132-87 (stomach, adherent, top dose 2.56 µM)”, for which the AUC was determined as 0.981 and the half-maximal inhibitory concentration (IC50) is over 2560 nM.

Turning to “A3-KAW (B-cell lymphoma, suspension, top dose 2.56 µM)”, the AUC was 0.852 and the 50% inhibitory concentration (IC50) was 1390 nM.

As to “A4-Fuk (B-cell lymphoma, suspension, top dose 2.56 µM)”, the AUC turned out to be 0.869 and the IC50 was determined as 2550 nM.

For the cell line “A101D (melanoma, adherent, top dose 2.56 µM)”, the AUC amounted to 0.886 and the 50% inhibitory concentration (IC50) was over 2560 nM.

With “A172 (glioma, adherent, top dose 2.56 µM)”, the AUC was 0.958 and the half-inhibitory concentration (IC50) is over 2560 nM.

For the cell line “A204 (rhabdomyosarcoma, adherent, top dose 2.56 µM)”, the AUC worked out at 0.873 and the IC50 is over 2560 nM.

Take “A253 (head and neck, adherent, top dose 2.56 µM)”: the AUC came to 0.937 and the concentration for half-maximal inhibition (IC50) was over 2560 nM.

Take “A375 (melanoma, adherent, top dose 2.56 µM)”: the AUC was determined as 0.784 and the 50% inhibitory concentration (IC50) turned out to be 888 nM.

For the cell line A388 (skin, adherent, top dose 2.56 µM), the AUC was 0.912 and the concentration for half-maximal inhibition (IC50) was over 2560 nM.

For the cell line “A427 (non-small cell lung carcinoma, adherent, top dose 2.56 µM)”, the AUC was determined as 0.938 and the IC50 is over 2560 nM.

In the case of A431 (skin, adherent, top dose 2.56 µM), the AUC amounted to 0.576 and the concentration for half-maximal inhibition (IC50) was 256 nM.

Turning to “A498 (kidney, adherent, top dose 2.56 µM)”, the AUC stood at 0.974 and the IC50 is over 2560 nM.

Consider “A673 (rhabdomyosarcoma, adherent, top dose 2.56 µM)”, for which the AUC is 0.912 and the IC50 is over 2560 nM.

For “A704 (kidney, adherent, top dose 2.56 µM)”, the AUC amounted to 0.989 and the IC50 is over 2560 nM.

Regarding “A2058 (melanoma, adherent, top dose 2.56 µM)”, the AUC was 0.892 and the IC50 was determined as 2450 nM.

Consider “A2780 (ovary, semi-adherent, top dose 2.56 µM)”, for which the AUC came out at 0.45 and the half-maximal inhibitory concentration (IC50) was 117 nM.

Regarding “ABC-1 (lung adenocarcinoma, adherent, top dose 2.56 µM)”, the AUC came out at 0.817 and the half-inhibitory concentration (IC50) worked out at 1820 nM.

In the case of “ACHN (kidney, adherent, top dose 2.56 µM)”, the AUC stood at 0.951 and the half-inhibitory concentration (IC50) was over 2560 nM.

Regarding “AGS (stomach, adherent, top dose 2.56 µM)”, the AUC was 0.972 and the IC50 was over 2560 nM.

For “ALL-PO (lymphoblastic leukaemia, suspension, top dose 2.56 µM)”, the AUC amounted to 0.243 and the half-inhibitory concentration (IC50) was determined as 27.5 nM.

As to “ALL-SIL (T-cell leukaemia, suspension, top dose 2.56 µM)”, the AUC amounted to 0.022 and the concentration for half-maximal inhibition (IC50) is under 10 nM.

As for “AM-38 (glioma, semi-adherent, top dose 2.56 µM)”, the AUC was 0.881 and the half-inhibitory concentration (IC50) is over 2560 nM.

For the cell line “AMO-1 (haematopoietic neoplasm, suspension, top dose 2.56 µM)”, the AUC worked out at 0.94 and the 50% inhibitory concentration (IC50) is over 2560 nM.

Consider “AN3-CA (endometrium, adherent, top dose 2.56 µM)”, for which the AUC amounted to 0.914 and the 50% inhibitory concentration (IC50) is over 2560 nM.

For “ARH-77 (myeloma, suspension, top dose 2.56 µM)”, the AUC is 0.886 and the IC50 was over 2560 nM.

For the cell line “ASH-3 (thyroid, adherent, top dose 2.56 µM)”, the AUC came to 0.988 and the IC50 was over 2560 nM.

On to “ATN-1 (T-cell lymphoblastic leukaemia, suspension, top dose 2.56 µM)”, for which the AUC worked out at 0.475 and the IC50 was determined as 137 nM.

For “AU565 (breast, adherent, top dose 2.56 µM)”, the AUC is 0.978 and the half-inhibitory concentration (IC50) is over 2560 nM.

“AsPC-1 (pancreas, adherent, top dose 2.56 µM)”: the AUC was 0.924 and the IC50 was over 2560 nM.

In the case of “BB30-HNC (head and neck, adherent, top dose 2.56 µM)”, the AUC worked out at 0.916 and the half-maximal inhibitory concentration (IC50) is over 2560 nM.

“BB49-HNC (head and neck, adherent, top dose 2.56 µM)”: the AUC amounted to 0.978 and the IC50 was over 2560 nM.

Turning to “BB65-RCC (kidney, adherent, top dose 2.56 µM)”, the AUC is 0.982 and the concentration for half-maximal inhibition (IC50) was over 2560 nM.

On to “BC-1 (B-cell lymphoma, suspension, top dose 2.56 µM)”, for which the AUC was found to be 0.543 and the half-maximal inhibitory concentration (IC50) is 206 nM.

Take “BC-3 (B-cell lymphoma, suspension, top dose 2.56 µM)”: the AUC was 0.965 and the IC50 is over 2560 nM.

With “BCPAP (thyroid, adherent, top dose 2.56 µM)”, the AUC worked out at 0.921 and the IC50 was over 2560 nM.

For “BE2-M17 (neuroblastoma, adherent, top dose 2.56 µM)”, the AUC is 0.957 and the half-maximal inhibitory concentration (IC50) was over 2560 nM.

For the cell line “BE-13 (lymphoblastic leukaemia, suspension, top dose 2.56 µM)”, the AUC came to 0.198 and the IC50 was 22.1 nM.

Consider “BEN (non-small cell lung carcinoma, adherent, top dose 2.56 µM)”, for which the AUC is 0.931 and the half-maximal inhibitory concentration (IC50) is over 2560 nM.

On to “BFTC-905 (bladder, adherent, top dose 2.56 µM)”, for which the AUC came out at 0.934 and the IC50 is over 2560 nM.

Take “BFTC-909 (kidney, adherent, top dose 2.56 µM)”: the AUC was found to be 0.988 and the IC50 is over 2560 nM.

As to “BHT-101 (thyroid, adherent, top dose 2.56 µM)”, the AUC was 0.961 and the 50% inhibitory concentration (IC50) is over 2560 nM.

With “BHY (head and neck, adherent, top dose 2.56 µM)”, the AUC is 0.932 and the half-maximal inhibitory concentration (IC50) was over 2560 nM.

Consider “BICR10 (head and neck, adherent, top dose 2.56 µM)”, for which the AUC was 0.985 and the IC50 is over 2560 nM.

On to “BICR22 (head and neck, adherent, top dose 2.56 µM)”, for which the AUC was found to be 0.983 and the IC50 was over 2560 nM.

Turning to “BICR31 (head and neck, adherent, top dose 2.56 µM)”, the AUC is 0.963 and the IC50 is over 2560 nM.

On to “BICR78 (head and neck, adherent, top dose 2.56 µM)”, for which the AUC was determined as 0.98 and the 50% inhibitory concentration (IC50) was over 2560 nM.

In the case of “BPH-1 (prostate, adherent, top dose 2.56 µM)”, the AUC came to 0.218 and the IC50 was found to be 21.5 nM.

Compound in another experiment: Cc1ccc(C(=O)N(CCCN)[C@@H](c2nc3cc(Cl)ccc3c(=O)n2Cc2ccccc2)C(C)C)cc1 [SB-715992]
The description is as above. Conditions: top dose 0.128 µM; top dose inferred. Here is the method:
as §1
Turning to “COR-L311 (small cell lung carcinoma, suspension)”, the AUC worked out at 0.827 and the half-inhibitory concentration (IC50) worked out at 86 nM.
